Experimental data taken from the supplement of paper PMC9446081.
The whole screen tested about 39,000 compounds, of which about 220 (0.56%) showed activity. Some of the results follow.

These molecules were tested on Escherichia coli K-12 BW25113 (assay: relative growth (OD600 normalised to plate interquartile mean) (fraction); higher = less growth inhibition, active = 0.2 or less). Conditions: 50 µM; LB; incubation time: overnight (16-24 h).
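Note: static incubation at 37 °C against the wild-type strain, values averaged over two biological replicates.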

Q: How did the relative growth turn out when `Cc1ccc(S(=O)(=O)N(C)C[C@@H]2Oc3ccc(NC(=O)Nc4cccc5ccccc45)cc3C(=O)N([C@@H](C)CO)C[C@H]2C)cc1` was run?
A: inactive: 1.01

Q: Which relative growth does the source give for `Cc1ccc(OC(=O)n2c3ccccc3c3ccccc32)cc1` here?
A: inactive: 1

Q: For `C[C@H](CO)N1C[C@H](C)[C@@H](CN(C)Cc2ccc(Oc3ccccc3)cc2)Oc2ccc(NC(=O)Nc3ccc(C(F)(F)F)cc3)cc2CC1=O`, which relative growth is on record?
A: inactive: 1.03

Q: For `COc1ccc(S(=O)(=O)N(C)C[C@@H]2Oc3ccc(NC(=O)c4ccncc4)cc3C(=O)N([C@H](C)CO)C[C@@H]2C)cc1`, which relative growth is on record?
A: inactive: 0.987

Q: `C[C@H](CO)N1C[C@H](C)[C@H](CN(C)Cc2ccc(C(F)(F)F)cc2)Oc2ccc(NC(=O)CCC(F)(F)F)cc2CC1=O` was tested. Which relative growth did it give?
A: inactive: 1.06

Q: For `CC(C(=O)O)c1ccc(-c2ccccc2)c(F)c1` (configuration not stated), which relative growth is on record?
A: inactive: 1.03

Q: Which relative growth does the source give for `C[C@@H]1CCCCO[C@@H](CN(C)Cc2ccc(Cl)c(Cl)c2)[C@H](C)CN([C@H](C)CO)C(=O)c2cc(NS(=O)(=O)c3ccc(Cl)cc3)ccc2O1` here?
A: inactive: 0.99

Q: How did the relative growth turn out when `C[C@@H]1O[C@@H](OC[C@H]2O[C@@H](Oc3c(-c4ccc(O)cc4)oc4cc(O)cc(O)c4c3=O)[C@H](O)[C@@H](O)[C@@H]2O)[C@H](O)[C@H](O)[C@H]1O` was run?
A: inactive: 1.02

Q: How did the relative growth turn out when `C[C@@H]1CCCCO[C@@H](CN(C)C(=O)Nc2ccc(C(F)(F)F)cc2)[C@H](C)CN([C@H](C)CO)C(=O)c2cc(NS(=O)(=O)c3cccs3)ccc2O1` was run?
A: inactive: 1.03

Q: How did the relative growth turn out when `C[C@@H]1CN([C@@H](C)CO)C(=O)c2cc(NS(=O)(=O)c3cn(C)cn3)ccc2O[C@H]1CN(C)S(=O)(=O)c1cccs1` was run?
A: inactive: 0.981

Q: How did the relative growth turn out when `C[C@@H]1CN([C@H](C)CO)C(=O)c2cccc(NC(=O)Nc3ccc(F)cc3)c2O[C@H]1CN(C)Cc1ccc(C(=O)Nc2ccccc2N)cc1` was run?
A: inactive: 1.01

Q: With `Cc1cc(O)c2c(c1)C(=O)c1cccc(O)c1C2=O` as the molecule, how does the relative growth read?
A: inactive: 1.07

Q: With `NC(=O)c1cn(Cc2c(F)cccc2F)nn1` as the molecule, how does the relative growth read?
A: inactive: 0.998

Q: For `CC(C[N+](C)(C)C)OC(N)=O.[Cl-]` (configuration not stated), which relative growth is on record?
A: inactive: 1.13

Q: For `C[C@@H]1CN([C@H](C)CO)C(=O)Cc2cc(NC(=O)Nc3ccccc3)ccc2O[C@@H]1CN(C)Cc1ccc(-c2ccccc2)cc1`, which relative growth is on record?
A: inactive: 0.985

Q: Which relative growth does the source give for `C[C@H](CO)N1C[C@H](C)[C@H](CN(C)S(=O)(=O)c2cn(C)cn2)OCc2ccccc2-c2c(n(C)c3ccccc23)C1=O` here?
A: inactive: 1.03

Q: For `C[C@@H]1CCCCO[C@@H](CN(C)S(=O)(=O)c2cccs2)[C@@H](C)CN([C@H](C)CO)C(=O)c2cc(NC(=O)C3CCCCC3)ccc2O1`, which relative growth is on record?
A: inactive: 0.99

Q: With `COc1ccc(CN(C)C[C@H]2OCCCC[C@@H](C)Oc3ccc(NC(=O)Cc4ccccc4)cc3C(=O)N([C@H](C)CO)C[C@H]2C)cc1` as the molecule, how does the relative growth read?
A: inactive: 0.994

Q: For `C[C@H]1CN([C@@H](C)CO)C(=O)c2cc(C#Cc3cccnc3)cnc2O[C@@H]1CN(C)Cc1ccc(F)cc1`, which relative growth is on record?
A: inactive: 0.993

Q: `C[C@H]1CN([C@@H](C)CO)C(=O)c2cccc(NS(=O)(=O)c3cn(C)cn3)c2O[C@H]1CN(C)S(=O)(=O)c1cn(C)cn1` was tested. Which relative growth did it give?
A: inactive: 0.986

Q: `Cc1ccc(S(=O)(=O)Nc2ccc3c(c2)C(=O)N([C@@H](C)CO)C[C@@H](C)[C@H](CN(C)Cc2ccc(C(F)(F)F)cc2)OCCCC[C@@H](C)O3)cc1` was tested. Which relative growth did it give?
A: inactive: 0.903

Q: Which relative growth does the source give for `COc1ccc(NC(=O)N(C)C[C@@H]2OCCCC[C@@H](C)Oc3ccc(NS(=O)(=O)c4cccs4)cc3C(=O)N([C@@H](C)CO)C[C@H]2C)cc1` here?
A: inactive: 1.03

Q: `CC(=O)O[C@@H]1[C@@H](OC(C)=O)[C@H](C)O[C@@H](O[C@H]2[C@H](OC/C=C(\C)CC/C=C(\C)CC/C=C(\C)CCC=C(C)C)O[C@H](CO[C@@H]3O[C@@H](C)[C@H](O)[C@@H](O)[C@H]3O)[C@@H](O)[C@@H]2O)[C@@H]1OC(C)=O` was tested. Which relative growth did it give?
A: inactive: 0.793

Q: With `CNC[C@@H]1Oc2ccc(NC(=O)Cn3cnnn3)cc2C(=O)N([C@@H](C)CO)C[C@H]1C` as the molecule, how does the relative growth read?
A: inactive: 0.977

Q: With `C[C@@H]1CN([C@H](C)CO)C(=O)c2cc(NC(=O)C3CCCCC3)ccc2O[C@@H](C)CCCCO[C@@H]1CN(C)C(=O)CCC(F)(F)F` as the molecule, how does the relative growth read?
A: inactive: 1.02

Q: With `COc1ccc(NC(=O)N(C)C[C@@H]2Oc3ccc(NC(=O)Cn4cnnn4)cc3CC(=O)N([C@H](C)CO)C[C@H]2C)cc1` as the molecule, how does the relative growth read?
A: inactive: 1.01

Q: `COc1ccc(S(=O)(=O)Nc2cccc3c2O[C@@H](CN(C)Cc2ccc(Cl)c(Cl)c2)[C@H](C)CN([C@H](C)CO)C3=O)cc1` was tested. Which relative growth did it give?
A: inactive: 1.03

Q: How did the relative growth turn out when `C[C@H](CO)N1C[C@H](C)[C@H](CN(C)Cc2ccncc2)Oc2ccc(NC(=O)Cn3cnnn3)cc2C1=O` was run?
A: inactive: 0.985

Q: With `O=C(OCC(O)CO)c1ccccc1Nc1ccnc2cc(Cl)ccc12` (configuration not stated) as the molecule, how does the relative growth read?
A: inactive: 0.85

Q: With `COc1cc(OC)cc(-c2ccc([C@H]3CC(=O)C[C@@H](c4ccccc4)C34C(=O)c3ccccc3C4=O)cc2)c1` as the molecule, how does the relative growth read?
A: inactive: 1.02

Q: For `Cn1c(=O)c2c(nc(N3CCOCC3)n2CCN)n(C)c1=O`, which relative growth is on record?
A: inactive: 1.02

Q: For `C[C@H]1CN([C@@H](C)CO)C(=O)c2cccc(NS(C)(=O)=O)c2O[C@H]1CN(C)C(=O)Nc1ccc2c(c1)OCO2`, which relative growth is on record?
A: inactive: 0.994

Q: `C[C@@H](O)C#Cc1ccc2c(c1)O[C@H](CN(C)C(=O)Nc1ccccc1)[C@@H](C)CN([C@@H](C)CO)S2(=O)=O` was tested. Which relative growth did it give?
A: inactive: 0.974

Q: For `COC(=O)C1=CO[C@@H](O[C@@H]2O[C@H](CO)[C@@H](O)[C@H](O)[C@H]2O)[C@@H]2[C@@H](C)[C@@H](OC(=O)/C=C/c3ccc(O)cc3)[C@@H](O)[C@H]12`, which relative growth is on record?
A: inactive: 1.02

Q: With `COCC(=O)Nc1ccc2c(c1)OC[C@H](C)N(Cc1cccc(F)c1)C[C@@H](C)[C@H](OC)CN(C)C2=O` as the molecule, how does the relative growth read?
A: inactive: 0.999

Q: How did the relative growth turn out when `C[C@H](CO)N1C[C@H](C)[C@H](CN(C)C(=O)c2ccc3c(c2)OCO3)Oc2ncc(C#Cc3ccccc3F)cc2C1=O` was run?
A: inactive: 1.03

Q: With `C[C@@H]1CN([C@H](C)CO)C(=O)Cc2cc(NC(=O)Cc3ccccc3)ccc2O[C@H]1CN(C)C(=O)Nc1ccc(C(F)(F)F)cc1` as the molecule, how does the relative growth read?
A: inactive: 0.997

Q: With `Cc1noc(C)c1NC(=O)Nc1ccc2c(c1)C(=O)N([C@@H](C)CO)C[C@@H](C)[C@H](CN(C)C(=O)Nc1ccc3c(c1)OCO3)OCCCC[C@H](C)O2` as the molecule, how does the relative growth read?
A: inactive: 1.05

Q: Which relative growth does the source give for `C[C@@H]1CCCCO[C@H](CN(C)Cc2ccc(C(F)(F)F)cc2)[C@@H](C)CN([C@H](C)CO)C(=O)c2cc(NC(=O)CCC(F)(F)F)ccc2O1` here?
A: inactive: 0.933

Q: `C[C@@H]1CCCCO[C@@H](CN(C)C(=O)Nc2ccc(C(F)(F)F)cc2)[C@@H](C)CN([C@H](C)CO)C(=O)c2cc(NS(C)(=O)=O)ccc2O1` was tested. Which relative growth did it give?
A: inactive: 0.961

Q: `CC(C)NC(=O)Nc1ccc2c(c1)C(=O)N([C@@H](C)CO)C[C@H](C)[C@H](CN(C)S(=O)(=O)c1ccc(F)cc1)O2` was tested. Which relative growth did it give?
A: inactive: 1.02

Q: `C[C@H](CO)N1C[C@H](C)[C@@H](CN(C)C(=O)Cc2ccccc2)OCCCC[C@H](C)Oc2ccc(NC(=O)c3ccccc3)cc2C1=O` was tested. Which relative growth did it give?
A: inactive: 1.03

Q: With `O=C1O[C@H](c2ccccc2)[C@H](c2ccccc2)N2[C@H]1[C@@H](C(=O)O)[C@]1(C(=O)Nc3ccc(C#CC4=CCCCC4)cc31)[C@H]2C1CCCCC1` as the molecule, how does the relative growth read?
A: inactive: 0.896

Q: For `O=C(C[C@@H]1C[C@@H]2c3cc(NS(=O)(=O)c4ccc(F)cc4)ccc3O[C@@H]2[C@H](CO)O1)NCc1cccc(F)c1`, which relative growth is on record?
A: inactive: 0.995

Q: With `CN1CCN(C(=O)[C@@H]2[C@@H](CO)[C@@H]3Cn4c(ccc(-c5cncnc5)c4=O)[C@@H]3N2CC2CC2)CC1` as the molecule, how does the relative growth read?
A: inactive: 0.98

Q: Which relative growth does the source give for `COC[C@@H]1c2nnn(C)c2CCN1S(=O)(=O)c1cn(C)cn1` here?
A: inactive: 0.985

Q: With `NC(=O)c1ncn(C2OC(CO)C(O)C2O)c1O` (configuration not stated) as the molecule, how does the relative growth read?
A: inactive: 0.968

Q: With `COc1ccc(S(=O)(=O)N(C)C[C@H]2Oc3ccc(NS(C)(=O)=O)cc3CC(=O)N([C@H](C)CO)C[C@@H]2C)cc1` as the molecule, how does the relative growth read?
A: inactive: 0.985

Q: For `CC(C)(C)S(=O)N1Cc2cc(C(=O)NCc3ccc(Oc4ccccc4)cc3)nc(-c3cccc(C#CCC4CCCC4)c3)c2[C@@H]1CCO` (some centres not stated), which relative growth is on record?
A: inactive: 0.977

Q: Which relative growth does the source give for `C[C@@H]1CN([C@H](C)CO)C(=O)c2ccccc2-c2ccccc2CO[C@@H]1CN(C)C(=O)Nc1cccc(C(F)(F)F)c1` here?
A: inactive: 0.979

Q: How did the relative growth turn out when `C[C@@H]1CN([C@@H](C)CO)C(=O)c2cc(NS(=O)(=O)c3cccs3)ccc2O[C@@H](C)CCCCO[C@H]1CN(C)C(=O)c1ccccc1` was run?
A: inactive: 1

Q: Which relative growth does the source give for `COc1ccc(CN(C)C[C@H]2OCCCC[C@@H](C)Oc3ccc(NC(=O)Nc4ccc(C(F)(F)F)cc4)cc3C(=O)N([C@H](C)CO)C[C@H]2C)cc1` here?
A: inactive: 1

Q: With `O=C(C[C@H]1C[C@@H]2c3cc(NC(=O)C4CCOCC4)ccc3O[C@@H]2[C@H](CO)O1)NCCN1CCCCC1` as the molecule, how does the relative growth read?
A: inactive: 0.994

Q: Which relative growth does the source give for `COc1cccc(NC(=O)N2C[C@@H](O)COC[C@H]3O[C@H](CC(=O)NC4Cc5ccccc5C4)CC[C@@H]32)c1` here?
A: inactive: 0.972

Q: `O=C(CCc1ccc(O)cc1)c1c(O)cc(O)cc1O[C@@H]1O[C@H](CO)[C@@H](O)[C@H](O)[C@H]1O` was tested. Which relative growth did it give?
A: inactive: 0.983

Q: `Cc1noc(C)c1NC(=O)N(C)C[C@H]1OCCCC[C@@H](C)Oc2ccc(NC(=O)NC3CCCCC3)cc2C(=O)N([C@@H](C)CO)C[C@H]1C` was tested. Which relative growth did it give?
A: inactive: 1

Q: `CC(=O)OC1CCC2(C)C(=CCC3C2CCC2(C)C(C(C)CCCC(C)C)CCC32)C1` (configuration not stated) was tested. Which relative growth did it give?
A: inactive: 0.866
